Measured values reported in the RNAGym collection of RNA variant scans (doi:10.7554/elife.90254).
The source gives no read counts; variants with many changes may rest on few reads.

B1: LINE1-mini (parent)
chain: GGCAGAGCUCAACACAGCGUGGCAAAGUGGCUGUGGCUAGACUGCC

Variants of: B1
Test: self-cleavage, relative activity (ratio to wild type); higher = more cleavage; in vitro, sequencing; the parent is a self-cleaving ribozyme

Variant | self-cleavage
GGCAGAGCUCAACACUACGAGGCAAAGUGGGUGUGCCUCGACUGCC [A16U G17A U20A C31G G36C A39C] | 0
GGCAGAGCUCAACAAAGCGUGGCAAAGUGGCUGUAGCUAAACUGCC [C15A G35A G40A] | 0.02
GGCAGAGCUCAACACAGCGUGGUAAAGUGGGUGUGGCUAGAUUGCC [C23U C31G C42U] | 0.07
GGCAGAGAUCAACACAGCGUGGCAAACUGCCUGUUGCUAGACUGCC [C8A G27C G30C G35U] | 0.06
GGCAGCGCUCAACACAGGGUGGCGAAGGGACUCUGGCUAGACUUCC [A6C C18G A24G U28G G30A G33C G44U] | 0.02
GGCAGAGAUCCACACAGCGUGGCAAAGUGUCUUUGGCUAGACUGCC [C8A A11C G30U G33U] | 0.02
GGCAGAGCUUACCACAGCGUGGCAAAGUGGCUGUGGCUAGUCUGCC [C10U A12C A41U] | 0.01
GGCAGGCCCCAACACAGCGUGGCAAAGUGGCUGUGGAUAUCCUGCC [A6G G7C U9C C37A G40U A41C] | 0.04
GGCAUAGCACAACACAGCGUCGCAAAGUGGCUGUGGCUAGACUGCA [G5U U9A G21C C46A] | 0.09
GGCAGAGCUGAACACAGCGUGGCCAAGGGCCUGUGGCUAGACUGCU [C10G A24C U28G G30C C46U] | 0.15
GGCGGAGCUCAACACAGCGUGACAUAGUGGCUGUGGCUAGACUGCC [A4G G22A A25U] | 2.2
AGCAGAGCUCAACACGGCCUGGCAAAGUGGCUGUGGCUAGACUGCC [G1A A16G G19C] | 0.19
GGUAGAGAUCAACACUGCGUGGCCAAGGGGCUGUGGCUAGACUGCC [C3U C8A A16U A24C U28G] | 0.75
AGCAGGGCUCAACAGAGCGUGGCAAAGUGGCUGUGGCCAGACUGCC [G1A A6G C15G U38C] | 0.04
GGCAGAGCUCAACAGAGCGUGGCAAAGUGGCUGUCGCUAGACCGCC [C15G G35C U43C] | 0.04
CGCAGAGCUGAACACAGCGUGGCAACGUGUCUGUGGCUAGACUGCC [G1C C10G A26C G30U] | 0.01
GGAAGAGCCCAACACAGCGUGGCACAGUGGCUGUGUCUAGACUGCC [C3A U9C A25C G36U] | 0.02
GGCAUAGCUCAAAACAUCGUGGCAAAGUGGCUGUGGCUAGACUGCG [G5U C13A G17U C46G] | 0.07
AGCAGAGCUGAACACAGCGAGGCAAAGUGGCUGUGGCUAGACUGCU [G1A C10G U20A C46U] | 0.01

Variant | self-cleavage
CGCAGAGCUCAACCCAGCGUGGCAAAGUGUCUAUGGCUAGACUGCC [G1C A14C G30U G33A] | 0.01
GGUAGAGCUCUACACAUCGUAGCAAAGUGGUUGUGGCUAGACUGCC [C3U A11U G17U G21A C31U] | 0.07
GGCAGAGCUCAAAACAGCGUGGCAAAGAGGCUGUGGCUACAGUGCC [C13A U28A G40C C42G] | 0.07
GCCAGAGCCCAACACAGCGUGGCAAAGUGGCUGUGGCAAGACUGAC [G2C U9C U38A C45A] | 0.01
GGCAGUGCUCAACACAGCGUGCCAAAGUGGCUGCGGCUAGACUGCC [A6U G22C U34C] | 0.06
GGAAUAGCUCAACACAGCGUGGCAAAGUGACUGUGGCUAGACUGCC [C3A G5U G30A] | 0.47
GGAAGACCUCAACACAGCGUUGCAAAGUGGAUGUUGCUAGACUGCC [C3A G7C G21U C31A G35U] | 0.12
GGCAGAGCUCAACAAAGCGUGGCAAAGGUGCUGUGGCUAGAAUGCC [C15A U28G G29U C42A] | 0.04
GGCAGAGCUCAACACAGCGUGGAAAAGUGGGUGUGCCUAGACUGCC [C23A C31G G36C] | 0.07
GGCAGAGAUCAACACAGCGUUGCAAACUGGCUGUGGCUAUACUGCC [C8A G21U G27C G40U] | 0.08
GGCAGAGCUCAAGACAGCGUGGCCAAGUGGCUAUGGCUAGACUGCC [C13G A24C G33A] | 0.07
GGCAGAGCUCAACACAGCGUUGCAAAGUGGCUGUGGCUAGUCUGGC [G21U A41U C45G] | 0.08
GGCAGAGCUCAACACAGCGUGGCAAAGUGGCUGUGGUUGGACUUCC [C37U A39G G44U] | 0.02
GGGAGAGCUAAACACAGCGUGGCAAAGUGGCUGUGGUUAGACUGCC [C3G C10A C37U] | 0.11
GGUAGAGCUCAACACAGCGUUGCAAAGUGGCUGUGGUUAGACUGCC [C3U G21U C37U] | 0.02
GGCAGAGCUCAACACGGCGUCGCAAAUUGGCUGUGGCUAGACUUCC [A16G G21C G27U G44U] | 0.12
GGCAGAGCACAACACAGCUUGGCACAGUGGCUGUGGCUAGACUGCC [U9A G19U A25C] | 0.08
GGCAGAGUUCAACACAGCGUGCCAAAGUGGCUGUGGAUAGACUGCC [C8U G22C C37A] | 0.18
GGCAGAGCUCAACACAGCGUGGCAUAUUGGCUGUGGCUACACUGCC [A25U G27U G40C] | 0.01

Variant | self-cleavage
GGCUGAGCUCAACACAGAGUGGCAAAGUGGCUGUGGCUAGAUUGCC [A4U C18A C42U] | 0.04
GGCCGAGCCCAACACAACGUGGCAAAGUGGCUUUGGCUAGACUGCC [A4C U9C G17A G33U] | 0.03
GGCAGGGCUCAACACAGCCUGGUAAAGUGGCUGUGGCUAGACUGCC [A6G G19C C23U] | 0.02
GGCAGGGCUAAACACAGCGUAGCAAAGUGGCUGUGGCUAGACUGCC [A6G C10A G21A] | 0.01
UGCAGAGCUCAACAGAGCGUGGCAAAGUGGCUGUAGCUAGACUGCC [G1U C15G G35A] | 0.01
GCCUGAGCUCAACACAGCGUGCAAAAGUGGCUAUGGCUAGACUGCU [G2C A4U G22C C23A G33A C46U] | 0.06
GGCAGAGCUCGACACAGCGUGGCAAAGUGCCUCUGGCUAGACUGCC [A11G G30C G33C] | 0.02
GGCAGAGCUGAGAACAGCGUGGCAAAGUGGCUGUGGCUAGACUGCA [C10G A12G C13A C46A] | 0.04
GGCACAGCUCAACACAGCGUAGCAAAGUGGCAGGGGCUAGAUUGCC [G5C G21A U32A U34G C42U] | 0.01
GGCAGAGCUCAACACAGCGUCGCAAAGUUGCUGGGGCUAGAGUGCC [G21C G29U U34G C42G] | 0
GGCAGAGCAUACCACAGCGUGGAAAAGUGGCUGUGGCUAGACUGCC [U9A C10U A12C C23A] | 0.01
GGCACAGGUCAACUCAGUGUAGCAAAGUGGCUGUGGCUAGUCUCCC [G5C C8G A14U C18U G21A A41U G44C] | 0.03
GGCAGAGCUUAACCUAGCGUGGCCAAUUGGCUGUGGCUAGACUGCC [C10U A14C C15U A24C G27U] | 0.1
GGCAGAGCUCAACACAGCUUGCCUAAGUGGCUGUUGCUAGACUACC [G19U G22C A24U G35U G44A] | 0.02
GGCAGAGCUCCACACAGCGUGGCAAAGUGGCUCUGGCUAGACUACC [A11C G33C G44A] | 0.02
GGCAGUGAGCAACCCAGCGUGGCAAAGUUGCUGUGGAUAGACUGCA [A6U C8A U9G A14C G29U C37A C46A] | 0.09
GGCAGAGCGAGACACAGCGUGGCAAAGUGGCUGUGGCUUCACUGCC [U9G C10A A11G A39U G40C] | 0.01
GGCAGAGCUCAUUUCAGCGUGGCAAAGUGGCUGUGGCUAGAGUGCC [A12U C13U A14U C42G] | 0.09
